# Measured values as given in the supplement of paper PMC8728848.
# The other results are listed elsewhere or left out.
# Columns and labels:
# Assay in all cases: glycan array binding signal (z-score within array); higher = stronger binding
# Settings in all cases: glycan notation: IUPAC condensed, linker removed
# [1] = biological target: Neu5Ac(a2-3)Gal(b1-4)GlcNAc(b1-2)Man(a1-3)[Neu5Ac(a2-6)Gal(b1-4)GlcNAc(b1-2)Man(a1-6)]Man(b1-4)GlcNAc(b1-4)GlcNAc
# Method in brief: (§1)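 Glycan array binding is given as a within-array Z-score, which can be read as non-binding when negative. The arrays, 3228 of them, came from the Consortium for Functional Glycomics database and were retained only where the protein sequence was available. Z-scores were averaged across arrays of the same protein sequence at different concentrations or buffers and across linkers.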
# [2] = biological target: Neu5Ac(a2-3)Gal(b1-4)GlcNAc(b1-2)[Neu5Ac(a2-3)Gal(b1-4)GlcNAc(b1-4)]Man(a1-3)[GlcNAc(b1-4)][Neu5Ac(a2-3)Gal(b1-4)GlcNAc(b1-2)[Neu5Ac(a2-3)Gal(b1-4)GlcNAc(b1-6)]Man(a1-6)]Man(b1-4)GlcNAc(b1-4)GlcNAc
# Method in brief: as §1
# [3] = biological target: Neu5Ac(a2-3)Gal(b1-4)GlcNAc(b1-2)[Neu5Ac(a2-3)Gal(b1-4)GlcNAc(b1-4)]Man(a1-3)[GlcNAc(b1-4)][Neu5Ac(a2-3)Gal(b1-4)GlcNAc(b1-4)Man(a1-6)]Man(b1-4)GlcNAc(b1-4)GlcNAc
# Method in brief: as §1
# [4] = biological target: Neu5Ac(a2-3)Gal(b1-4)GlcNAc(b1-2)[Neu5Ac(a2-3)Gal(b1-4)GlcNAc(b1-6)]Man(a1-6)[Neu5Ac(a2-3)Gal(b1-4)GlcNAc(b1-2)Man(a1-3)]Man(b1-4)GlcNAc(b1-4)GlcNAc
# Method in brief: as §1
# [5] = biological target: Neu5Ac(a2-3)Gal(b1-4)GlcNAc(b1-2)[Neu5Ac(a2-3)Gal(b1-4)GlcNAc(b1-6)]Man(a1-6)[Neu5Ac(a2-3)Gal(b1-4)GlcNAc(b1-2)Man(a1-3)][GlcNAc(b1-4)]Man(b1-4)GlcNAc(b1-4)GlcNAc
# Method in brief: as §1
# [6] = biological target: Neu5Ac(a2-3)Gal(b1-4)GlcNAc(b1-3)Gal
# Method in brief: as §1
# [7] = biological target: Neu5Ac(a2-3)Gal(b1-4)GlcNAc(b1-3)Gal(b1-3)GlcNAc
# Method in brief: as §1
# [8] = biological target: Neu5Ac(a2-3)Gal(b1-4)GlcNAc(b1-3)Gal(b1-4)GlcNAc
# Method in brief: as §1
# [9] = biological target: Neu5Ac(a2-3)Gal(b1-4)GlcNAc(b1-3)Gal(b1-4)GlcNAc(b1-2)Man(a1-3)[Neu5Ac(a2-3)Gal(b1-4)GlcNAc(b1-3)Gal(b1-4)GlcNAc(b1-2)Man(a1-6)]Man(b1-4)GlcNAc(b1-4)GlcNAc
# Method in brief: as §1
# [10] = biological target: Neu5Ac(a2-3)Gal(b1-4)GlcNAc(b1-3)Gal(b1-4)GlcNAc(b1-3)Gal(b1-4)GlcNAc
# Method in brief: as §1
# [11] = biological target: Neu5Ac(a2-3)Gal(b1-4)GlcNAc(b1-3)Gal(b1-4)GlcNAc(b1-3)Gal(b1-4)GlcNAc(b1-2)Man(a1-3)[Neu5Ac(a2-3)Gal(b1-4)GlcNAc(b1-3)Gal(b1-4)GlcNAc(b1-3)Gal(b1-4)GlcNAc(b1-2)Man(a1-6)]GalNAc
# Method in brief: as §1
# [12] = biological target: Neu5Ac(a2-3)Gal(b1-4)GlcNAc(b1-3)Gal(b1-4)GlcNAc(b1-3)GalNAc
# Method in brief: as §1
# [13] = biological target: Neu5Ac(a2-3)Gal(b1-4)GlcNAc(b1-3)Gal(b1-4)GlcNAc(b1-3)[Neu5Ac(a2-3)Gal(b1-4)GlcNAc(b1-3)Gal(b1-4)GlcNAc(b1-6)]GalNAc
# Method in brief: as §1
# [14] = biological target: Neu5Ac(a2-3)Gal(b1-4)GlcNAc(b1-3)Gal(b1-4)GlcNAc(b1-6)[Gal(b1-3)]GalNAc
# Method in brief: as §1
# [15] = biological target: Neu5Ac(a2-3)Gal(b1-4)GlcNAc(b1-3)Gal(b1-4)[Fuc(a1-3)]GlcNAc
# Method in brief: as §1
# [16] = biological target: Neu5Ac(a2-3)Gal(b1-4)GlcNAc(b1-3)GalNAc
# Method in brief: as §1
# [17] = biological target: Neu5Ac(a2-3)Gal(b1-4)GlcNAc(b1-3)[Neu5Ac(a2-3)Gal(b1-4)GlcNAc(b1-6)]GalNAc
# Method in brief: as §1
# [18] = biological target: Neu5Ac(a2-3)Gal(b1-4)GlcNAc(b1-6)GalNAc
# Method in brief: as §1
# [19] = biological target: Neu5Ac(a2-3)Gal(b1-4)GlcNAc(b1-6)[Gal(b1-3)]GalNAc
# Method in brief: as §1
# [20] = biological target: Neu5Ac(a2-3)Gal(b1-4)GlcNAc(b1-6)[Neu5Ac(a2-3)Gal(b1-3)]GalNAc
# Method in brief: as §1
# [21] = biological target: Neu5Ac(a2-3)Gal(b1-4)GlcNAc6S
# Method in brief: as §1
# [22] = biological target: Neu5Ac(a2-3)Gal(b1-4)[Fuc(a1-3)]GlcNAc
# Method in brief: as §1
# [23] = biological target: Neu5Ac(a2-3)Gal(b1-4)[Fuc(a1-3)]GlcNAc(b1-2)Man
# Method in brief: as §1
# [24] = biological target: Neu5Ac(a2-3)Gal(b1-4)[Fuc(a1-3)]GlcNAc(b1-3)Gal
# Method in brief: as §1
# [25] = biological target: Neu5Ac(a2-3)Gal(b1-4)[Fuc(a1-3)]GlcNAc(b1-3)Gal(b1-4)GlcNAc
# Method in brief: as §1
# [26] = biological target: Neu5Ac(a2-3)Gal(b1-4)[Fuc(a1-3)]GlcNAc(b1-3)Gal(b1-4)[Fuc(a1-3)]GlcNAc(b1-3)Gal(b1-4)[Fuc(a1-3)]GlcNAc
# Method in brief: as §1
# [27] = biological target: Neu5Ac(a2-3)Gal(b1-4)[Fuc(a1-3)]GlcNAc(b1-3)GalNAc
# Method in brief: as §1
# [28] = biological target: Neu5Ac(a2-3)Gal(b1-4)[Fuc(a1-3)]GlcNAc(b1-6)[Gal(b1-3)]GalNAc
# Method in brief: as §1
# [29] = biological target: Neu5Ac(a2-3)Gal(b1-4)[Fuc(a1-3)]GlcNAc(b1-6)[Neu5Ac(a2-3)Gal(b1-3)]GalNAc
# Method in brief: as §1
# [30] = biological target: Neu5Ac(a2-3)Gal(b1-4)[Fuc(a1-3)]GlcNAc6S
# Method in brief: as §1
# [31] = biological target: Neu5Ac(a2-3)Gal6S(b1-4)GlcNAc
# Method in brief: as §1
# [32] = biological target: Neu5Ac(a2-3)Gal6S(b1-4)[Fuc(a1-3)]GlcNAc
# Method in brief: as §1
# Neu5Ac(a2-3)GalNAc = biological target: Neu5Ac(a2-3)GalNAc
# Method in brief: as §1
# [33] = biological target: Neu5Ac(a2-3)GalNAc(b1-4)GlcNAc
# Method in brief: as §1
# [34] = biological target: Neu5Ac(a2-3)[GalNAc(b1-4)]Gal(b1-4)Glc
# Method in brief: as §1
# [35] = biological target: Neu5Ac(a2-3)[GalNAc(b1-4)]Gal(b1-4)GlcNAc
# Method in brief: as §1
# [36] = biological target: Neu5Ac(a2-3)[GalNAc(b1-4)]Gal(b1-4)GlcNAc(b1-3)GalNAc
# Method in brief: as §1
binder,measurement,setting,value
"MGL1 (Mus musculus), P49300 (protein) MIYENLQNSRIEEKTQEPGKAPSQSFLWRILSWTHLLLFSLGLSLLLLVVVSVIGSQNSQLRRDLGTLRATLDNTTSKIKAEFQSLDSRADSFEKGISSLKVDVEDHRQELQAGRDLSQKVTSLESTVEKREQALKTDLSDLTDHVQQLRKDLKALTCQLANLKNNGSEVACCPLHWTEHEGSCYWFSESEKSWPEADKYCRLENSHLVVVNSLEEQNFLQNRLANVVSWIGLTDQNGPWRWVDGTDFEKGFKNWAPLQPDNWFGHGLGGGEDCAHITTGGPWNDDVCQRTFRWICEMKLAKES",glycan array binding signal (z-score),[1],-0.771
same,glycan array binding signal (z-score),[2],-0.651
same,glycan array binding signal (z-score),[3],-0.357
same,glycan array binding signal (z-score),[4],-0.519
same,glycan array binding signal (z-score),[5],-0.328
same,glycan array binding signal (z-score),[6],-0.358
same,glycan array binding signal (z-score),[7],-0.706
same,glycan array binding signal (z-score),[8],-0.147
same,glycan array binding signal (z-score),[9],1.98
same,glycan array binding signal (z-score),[10],-0.335
same,glycan array binding signal (z-score),[11],3.39
same,glycan array binding signal (z-score),[12],-0.308
same,glycan array binding signal (z-score),[13],-0.025
same,glycan array binding signal (z-score),[14],0.066
same,glycan array binding signal (z-score),[15],-0.417
same,glycan array binding signal (z-score),[16],-0.537
same,glycan array binding signal (z-score),[17],-0.652
same,glycan array binding signal (z-score),[18],-0.057
same,glycan array binding signal (z-score),[19],-0.174
same,glycan array binding signal (z-score),[20],-0.418
same,glycan array binding signal (z-score),[21],0.083
same,glycan array binding signal (z-score),[22],-0.048
same,glycan array binding signal (z-score),[23],-0.66
same,glycan array binding signal (z-score),[24],0.179
same,glycan array binding signal (z-score),[25],-0.1
same,glycan array binding signal (z-score),[26],0.048
same,glycan array binding signal (z-score),[27],0.42
same,glycan array binding signal (z-score),[28],-0.246
same,glycan array binding signal (z-score),[29],-0.389
same,glycan array binding signal (z-score),[30],-0.064
same,glycan array binding signal (z-score),[31],0.985
same,glycan array binding signal (z-score),[32],-0.382
same,glycan array binding signal (z-score),Neu5Ac(a2-3)GalNAc,-0.228
same,glycan array binding signal (z-score),[33],-0.306
same,glycan array binding signal (z-score),[34],0.064
same,glycan array binding signal (z-score),[35],-0.489
same,glycan array binding signal (z-score),[36],-0.453
